Laboratory results published in patent publication US8333966B2, “CD37 immunotherapeutics and uses thereof” (Emergent Product Development Seattle, LLC, priority 2008, dated 2012).

T1: CD37 on Ramos cells (Homo sapiens, UniProt P11049)
T1 construct: endogenous in cells; host or cells: Ramos cells
T1 sequence (P11049 1-281): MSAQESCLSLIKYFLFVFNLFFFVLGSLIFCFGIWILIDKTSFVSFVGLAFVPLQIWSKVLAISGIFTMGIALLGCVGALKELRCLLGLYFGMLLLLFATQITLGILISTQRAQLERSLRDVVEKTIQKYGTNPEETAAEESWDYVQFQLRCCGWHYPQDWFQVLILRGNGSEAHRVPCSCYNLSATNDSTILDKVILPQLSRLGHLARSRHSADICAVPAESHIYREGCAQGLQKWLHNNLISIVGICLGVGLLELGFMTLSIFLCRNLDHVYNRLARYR

B1: CAS-001: CD37-specific SMIP construct Vk3:VH5-51, 16aa linker, SSC-P hinge, SEQ ID NO:6 (protein)
chain: MEAPAQLLFLLLLWLPDTTGEIVLTQSPATLSLSPGERATLSCRTSENVYSYLAWYQQKPGQAPRLLIYFAKTLAEGIPARFSGSGSGTDFTLTISSLEPEDFAVYYCQHHSDNPWTFGQGTKVEIKGGGGSGGGGSGGGGTGEVQLVQSGAEVKKPGESLKISCKGSGYSFTGYNMNWVRQMPGKGLEWMGNIDPYYGGTTYNRKFKGQVTISADKSISTAYLQWSSLKASDTAMYYCARSVGPMDYWGRGTLVTVSSDQ[sequence of human IgG1 Fc with changes omitted]
modifications: CD37 specific binding protein
B2: CAS-002: SMIP construct Vk3:VH5 JH4 CDRL1 (T25A); CDRH3 (M99F), SEQ ID NO:48 (protein)
chain: MEAPAQLLFLLLLWLPDTTGEIVLTQSPATLSLSPGERATLSCRASENVYSYLAWYQQKPGQAPRLLIYFAKTLAEGIPARFSGSGSGTDFTLTISSLEPEDFAVYYCQHHSDNPWTFGQGTKVEIKGGGGSGGGGSGGGGTGEVQLVQSGAEVKKPGESLKISCKGSGYSFTGYNMNWVRQMPGKGLEWMGNIDPYYGGTTYNRKFKGQVTISADKSISTAYLQWSSLKASDTAMYYCARSVGPFDYWGQGTLVTVSSDQ[sequence of human IgG1 Fc with changes omitted]
modifications: CD37 specific binding protein
B3: CAS-003: SMIP construct Vk3:VH5 JH5a CDRL1 (T25A); CDRH3 (M99F; Y102S), SEQ ID NO:52 (protein)
chain: MEAPAQLLFLLLLWLPDTTGEIVLTQSPATLSLSPGERATLSCRASENVYSYLAWYQQKPGQAPRLLIYFAKTLAEGIPARFSGSGSGTDFTLTISSLEPEDFAVYYCQHHSDNPWTFGQGTKVEIKGGGGSGGGGSGGGGTGEVQLVQSGAEVKKPGESLKISCKGSGYSFTGYNMNWVRQMPGKGLEWMGNIDPYYGGTTYNRKFKGQVTISADKSISTAYLQWSSLKASDTAMYYCARSVGPFDSWGQGTLVTVSSDQ[sequence of human IgG1 Fc with changes omitted]
modifications: CD37 specific binding protein
B4: CAS-017: human-mouse hybrid SMIP Vk3:mVH, 16aa linker, SSC-P hinge, SEQ ID NO:30 (252 without leader) (protein)
chain: MEAPAQLLFLLLLWLPDTTGEIVLTQSPATLSLSPGERATLSCRTSENVYSYLAWYQQKPGQAPRLLIYFAKTLAEGIPARFSGSGSGTDFTLTISSLEPEDFAVYYCQHHSDNPWTFGQGTKVEIKGGGGSGGGGSGGGGASAVQLQQSGPESEKPGASVKISCKASGYSFTGYNMNWVKQNNGKSLEWIGNIDPYYGGTTYNRKFKGKATLTVDKSSSTAYMQLKSLTSEDSAVYYCARSVGPMDYWGQGTSVTVSSS[sequence of human IgG1 Fc with changes omitted]
modifications: CD37 specific binding protein
B5: CAS-014: mouse-human hybrid SMIP mVH:Vk3, 22aa linker, SSC-P hinge, SEQ ID NO:24 (251 without leader) (protein)
chain: MEAPAQLLFLLLLWLPDTTGAVQLQQSGPESEKPGASVKISCKASGYSFTGYNMNWVKQNNGKSLEWIGNIDPYYGGTTYNRKFKGKATLTVDKSSSTAYMQLKSLTSEDSAVYYCARSVGPMDYWGQGTSVTVSSGGGGSGGGGSGGGGSGGGGSASEIVLTQSPATLSLSPGERATLSCRTSENVYSYLAWYQQKPGQAPRLLIYFAKTLAEGIPARFSGSGSGTDFTLTISSLEPEDFAVYYCQHHSDNPWTFGQGTKVEIKGSS[sequence of human IgG1 Fc with changes omitted]
modifications: CD37 specific binding protein
B6: CAS-062: SMIP construct Vk3:CDR-H3 JH6 CDRL1 (T25A); CDRH3 (Y102V), SEQ ID NO:254 (protein)
chain: EIVLTQSPATLSLSPGERATLSCRASENVYSYLAWYQQKPGQAPRLLIYFAKTLAEGIPARFSGSGSGTDFTLTISSLEPEDFAVYYCQHHSDNPWTFGQGTKVEIKGGGGSGGGGSGGGGTGEVQLVQSGAEVKKPGESLKISCKGSGYSFTGYNMNWVRQMPGKGLEWMGNIDPYYGGTTYNRKFKGQVTISADKSISTAYLQWSSLKASDTAMYYCARSVGPMDVWGQGTTVTVSSDQ[sequence of human IgG1 Fc with changes omitted]
modifications: CD37 specific binding protein

Test system: not listed separately
Test: SMIP expression in transfected CHO cells, supernatants titered with Protein A sensor
Parameters: species or system Chinese Hamster Ovary (CHO)
Settings: shake flasks, culture supernatants
Method: CAS-024 and other CD37-specific binding SMIP molecules were cloned into a Chinese Hamster Ovary (CHO) mammalian cell expression system. Transfected CHO cells that produced the SMIP molecules were cultured in shake flasks and harvested cell culture supernatants were titered using Octec Q Protein A sensor.

Molecule	Protein Titer Range
B1	65 to 80 µg/mL
B2	200 to 280 µg/mL
B3	300 to 360 µg/mL

Test system: not listed separately
Test: SMIP expression in transfected HEK293 cells, day 7 supernatants titered with Protein A sensor
Settings: supernatants day 7
Excerpt: CAS-024 and other CD37-specific binding SMIP molecules were produced by recombinant DNA technology and transfected into HEK293 cells for 7 days. Cell culture supernatants were harvested on day 7 and titered using Octec Q Protein A sensor.

Molecule	Protein Titer
B4	0.70 µg/mL
B2	0.47 µg/mL
B3	2.39 µg/mL
B5	2.16 µg/mL

Target: T1, CD37 on Ramos cells
Test: FMAT competition assay against FMAT Blue labeled CAS-006 for binding to Ramos cells
Settings: Ramos cells, data not shown
Excerpt: A competition assay was used to compare the binding affinity of different anti-CD37 specific small modular immunopharmaceutical (SMIP) molecules to CD-37 found on Ramos cells (a B-lymphoblastoid cell line derived from a Burkitt lymphoma). An SEC purified chimeric anti-CD37 SMIP molecule (CAS-006, SEQ ID NO:247) was labeled with the FMAT Blue® fluorescence dye (Applied Biosystems) and used as the standard to compete with purified unlabeled chimeric anti-CD37 SMIP molecule (positive control) and purified unlabeled humanized anti-CD37 SMIP test molecules. […] Briefly, the reagent FMAT Blue® labeled chimeric anti-CD37 SMIP molecule was diluted to 2 μg/ml in FACS blocking buffer and the purified protein samples (CAS-001 (SEQ ID NO:6), CAS-002 (SEQ ID NO:48), CAS-003 (SEQ ID NO:52), and CAS-024 (SEQ ID NO:253)) were serially diluted 1:2 to concentrations ranging from 50 μg/ml to 0.02 μg/ml. Ramos cells were harvested at 1,000 rpm for 5 minutes and resuspend in FACS blocking buffer at 4×10^6 cells/10 ml buffer. To each well of a black 96-well plate the following was added: 50 μl sample, 50 μl FMAT Blue® labeled chimeric anti-CD37 SMIP molecule, and 50 μl Ramos cells (4×10^4/well). The plates were incubated at room temperature for 30 min and read on an 8200 Cellular Detection System (Applied Biosystems) gated for middle cell size and low signal.
A competition assay as described in Example 4 was used to compare the binding affinity of different mouse-human hybrid anti-CD37 SMIP molecules compared to CAS-024 binding to Ramos cells. An SEC purified chimeric anti-CD37 SMIP molecule (CAS-006, SEQ ID NO:247) was labeled with the FMAT Blue® fluorescence dye (Applied Biosystems) and used as the standard to compete with purified unlabeled chimeric anti-CD37 SMIP molecule (CAS-006, positive control) and purified unlabeled humanized anti-CD37 SMIP test molecules—CAS-002 (SEQ ID NO:48), CAS-003 (SEQ ID NO:52), CAS-014 (SEQ ID NO:251), CAS-017 (SEQ ID NO:252), and CAS-024 (SEQ ID NO:253).

Molecule	binding activity compared to CAS-001 or CAS-024
B6	detectable but severely decreased binding

Same assay, conditions: competition with labeled CAS-006, Ramos cells

affinity for CD37 compared with parent chimeric CAS-006	Molecule
higher than CAS-006	B4
lower binding affinity	B3
higher than CAS-006	B5

Molecule	affinity for CD37 compared with parent chimeric CAS-006
B1	significantly less than CAS-006 or CAS-024
